About 2,200 (0.71%) of roughly 310,000 compounds showed an effect of 50% or more. Effects have a minus sign here. The list shows a part of the results.
Molecular target: human ether-à-go-go-related gene (hERG) potassium channel (human, UniProt Q12809)
Assay: primary screen, population patch clamp on CHO cells stably expressing hERG

Sequence of human ether-à-go-go-related gene (hERG) potassium channel (Q12809 whole entry, looked up): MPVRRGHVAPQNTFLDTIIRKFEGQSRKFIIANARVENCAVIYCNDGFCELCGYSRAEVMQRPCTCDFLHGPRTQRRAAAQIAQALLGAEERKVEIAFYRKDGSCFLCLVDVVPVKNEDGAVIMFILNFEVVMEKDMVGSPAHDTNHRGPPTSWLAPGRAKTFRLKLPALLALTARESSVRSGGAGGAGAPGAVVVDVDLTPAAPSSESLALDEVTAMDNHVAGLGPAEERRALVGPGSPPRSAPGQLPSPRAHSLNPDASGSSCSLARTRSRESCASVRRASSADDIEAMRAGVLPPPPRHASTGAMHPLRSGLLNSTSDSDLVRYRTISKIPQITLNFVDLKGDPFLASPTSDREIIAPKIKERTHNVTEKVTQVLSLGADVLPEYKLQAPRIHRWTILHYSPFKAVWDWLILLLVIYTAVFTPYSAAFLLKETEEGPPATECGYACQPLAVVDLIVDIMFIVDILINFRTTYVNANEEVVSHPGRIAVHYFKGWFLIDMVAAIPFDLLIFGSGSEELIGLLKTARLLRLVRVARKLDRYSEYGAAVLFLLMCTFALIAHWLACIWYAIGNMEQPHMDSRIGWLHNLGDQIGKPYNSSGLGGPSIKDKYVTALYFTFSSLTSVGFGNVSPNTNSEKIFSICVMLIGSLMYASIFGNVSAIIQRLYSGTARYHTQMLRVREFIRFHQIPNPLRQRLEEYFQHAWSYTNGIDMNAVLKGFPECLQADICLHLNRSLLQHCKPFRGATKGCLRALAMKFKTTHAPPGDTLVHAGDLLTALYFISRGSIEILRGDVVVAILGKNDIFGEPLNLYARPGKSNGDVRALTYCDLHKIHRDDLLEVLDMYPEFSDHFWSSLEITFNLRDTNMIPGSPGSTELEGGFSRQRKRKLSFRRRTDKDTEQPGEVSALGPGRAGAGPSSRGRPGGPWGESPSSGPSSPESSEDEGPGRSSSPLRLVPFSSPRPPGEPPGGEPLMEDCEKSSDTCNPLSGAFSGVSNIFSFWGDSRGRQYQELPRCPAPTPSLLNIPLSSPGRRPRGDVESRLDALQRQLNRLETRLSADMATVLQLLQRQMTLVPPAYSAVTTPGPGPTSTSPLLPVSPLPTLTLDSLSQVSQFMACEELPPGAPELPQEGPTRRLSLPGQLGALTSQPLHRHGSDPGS

SMILES	hERG current change (%, negative = inhibition) at 1uM
O=C(NNC1=NC2(CCCC2)Cc2ccccc21)c1ccncc1	11%
CC(CCc1ccccc1)NC(=O)c1ccccc1Cl (stereo not drawn)	3.23%
C/C(=N\NC(=O)c1c(C)nc2ccccn12)c1ccco1	-13.8%
C=CCOc1cccc(C2NC(=O)c3ccccc3O2)c1 (stereo not drawn)	16%
O=C(NCc1ccco1)c1csc2c1CCCCC2	9.95%
O=C(CSc1nc(-c2ccco2)cc(C(F)(F)F)n1)NC1CCCC1	3.67%
COCCCNC(=O)CN(c1cc(OC)ccc1OC)S(=O)(=O)c1ccccc1	11.5%
CN(C(=O)c1nn(C)c2c1CSc1ccccc1-2)c1ccccc1Cl	4.2%
CN(/N=C/c1cccnc1)c1cnc2ccccc2n1	5.07%
CC(C)(C)NC(=S)N/N=C/c1cc(Br)c(O)c(Br)c1	18.4%
Cn1nc(CC(=O)NCc2cccc3ccccc23)c2ccccc2c1=O	11.6%
Cc1ccc[n+](CC(=O)c2ccc(-c3ccccc3)cc2)c1.[Br-]	-22.5%
CC(O)C(=O)O.Cc1ccc(CN(CC(O)COc2cccc3[nH]cc(C)c23)C(C)(C)C)cc1 (stereo not drawn)	-23.6%
O=C(CCc1[nH]c2ccccc2c1Sc1ccccc1)N(CCO)CCO	5.76%
Cc1ccc(S(=O)(=O)N(C)C)cc1NC(=O)CN1C(=O)NC2(CCCCCC2)C1=O	8.1%
C(=N\Nc1nc(Nc2ccccc2)nc(Nc2ccccc2)n1)/c1ccncc1	4.7%
O=C(O)CC1SC(N/N=C/c2ccc(Br)cc2)NC1=O (stereo not drawn)	8.66%
COc1ccc(OC(=O)CCCN2C(=O)c3ccccc3C2=O)cc1	0.666%
COc1ccccc1NC(=O)c1csc(-n2nc(C)cc2C(F)(F)F)n1	7.24%
CC(=O)c1cc(C#N)c(N2CCOCC2)nc1C	13.8%
Cc1ccc(N(C(=O)C2COc3ccccc3O2)C(C(=O)NC2CCCCC2)c2cn(C)nc2C)cc1 (stereo not drawn)	11.2%
COc1ccc(C(=O)/C=C2\NCC3c4ccccc4CCN3C2=O)cc1 (stereo not drawn)	8.26%
CCN(CC)CCN(C(=O)c1ccc2ccccc2c1)c1nc2ccc(OC)cc2s1.Cl	1.06%
COc1ccc(Br)cc1CN(C)CC(=O)NCCc1ccccc1.O=C(O)C(=O)O	10.6%
NC(=O)CC1(CC(=O)O)CCCCC1	9.72%
COCc1[nH]nc2c1C(c1ccc(OC)c(OC)c1)C(C#N)=C(N)O2 (stereo not drawn)	10.6%
Cc1cccc(C(=O)NCC(=O)NCC(c2cccs2)N2CCOCC2)c1 (stereo not drawn)	5.91%

SMILES	hERG current change (%, negative = inhibition) at 1uM
CCOc1ccc(C(=O)Cc2cc3cccc(OC)c3oc2=O)cc1	17.4%
CC1(C(=O)NNC(=O)c2cccc([N+](=O)[O-])c2)CC1(Br)Br (stereo not drawn)	16.3%
CC(=O)c1ccc2c(c1)OCCOCCOCCOCCOCCO2	-11.8%
COc1ccc(N2CC(C(=O)Nc3cccc(S(=O)(=O)N4CCCC4)c3)CC2=O)c(OC)c1 (stereo not drawn)	13.8%
N#C/C(=C/c1ccc(-c2ccc(Br)cc2)o1)C(=O)NC1CCCCC1	9.83%
COc1ccc(-c2cn3cc(Br)cnc3n2)cc1	8.73%
CCn1c(=O)cc(SCC(=O)NCCN2CCN(Cc3ccccc3)CC2)c2ccccc21	0.451%
CCOc1ccc(CNC(=O)C2CCCN(S(C)(=O)=O)C2)cc1OC (stereo not drawn)	0.57%
COc1ccc(C2C(C(=O)Nc3cccc(C)n3)c3ccccc3C(=O)N2C)cc1 (stereo not drawn)	7.94%
O=C(CSc1ncccc1C(=O)O)c1ccccc1	3.09%
O=C(Cc1ccc([N+](=O)[O-])cc1)Nc1ccc2c(c1)CCC2	10.4%
CCOc1ccc(C(=O)O[C@H]2[C@H](Cc3ccccc3)NS(=O)(=O)[C@H]3C[C@@H]4C=C[C@]23O4)cc1	15.4%
CCOC(=O)Cc1csc(NC(=O)c2ccc(S(=O)(=O)N3CCCC3)cc2)n1	5.76%
Cc1cccc(NC(=O)C2CCN(S(=O)(=O)c3ccc4c(c3)NC(=O)CO4)CC2)c1	15.2%
COc1cc(Nc2c3ccccc3nc3ccccc23)cc(OC)c1OC	-32.7%
COc1ccc(C)cc1NC(=O)NC1CCCc2ccccc21 (stereo not drawn)	0.501%
COc1ccccc1Oc1ccc(S(=O)(=O)N2CCCCC2C)cc1 (stereo not drawn)	-0.757%
O=C(CN1CCN(c2ccccc2O)CC1)Nc1cc([N+](=O)[O-])ccc1Cl	4.97%
Cc1ccc(C(=O)N/C(=C\c2cccc([N+](=O)[O-])c2)C(=O)Nc2cccc(C(=O)O)c2)cc1	10.5%
Cc1ccc(S(=O)(=O)Nc2cccc(-n3cnnn3)c2)cc1	5.4%
Cc1oc(-c2cccc(Cl)c2)nc1CN1CCC(C(=O)NCc2cccnc2)CC1	-13%
O=S(=O)(c1ccccc1)N1CCC2(CC1)OCCO2	16.4%
COC(=O)C1=C(N)Oc2cc(C)n(C)c(=O)c2C1c1ccc(Cl)cc1 (stereo not drawn)	4.99%
COC(=O)C1C(O)C(C)C(O)C(C)(O)/C=C\C=C(/C)C(=O)Nc2c(C)c(OC(C)=O)c3c(c2O)C(=O)C(C)=C2OCOC(=C23)/C(C)=C/C(C)(O)C(O)C(C)C1O (stereo not drawn)	7.93%
O=C(COC(=O)/C=C/c1cccc(C(F)(F)F)c1)NCc1ccco1	19.7%
CC1(C)Cc2c(cnn2-c2ccc(F)cc2)C(NC(=O)C2CCC2)C1 (stereo not drawn)	-56.8%
O=C(Nc1ccc(Oc2cccnc2)cc1)C1CCN(Cc2cccc(Cl)c2)CC1	6.55%

— article PMC4336329 (PLoS ONE, 2015)
